# Some of the results follow. The full chains were built here from the parent and the listed change. Values near 0.05 are background.
# B1: TEV protease; numbered along this chain (parent)
# chain: MGESLFKGPRDYNPISSSICHLTNESDGHTTSLYGIGFGPFIITNKHLFRRNNGTLVVQSLHGVFKVKDTTTLQQHLVDGRDMIIIRMPKDFPPFPQKLKFREPQREERICLVTTNFQTKSMSSMVSDTSCTFPSGDGIFWKHWIQTKDGQCGSPLVSTRDGFIVGIHSASNFTNTNNYFTSVPKNFMELLTNQEAQQWVSGWRLNADSVLWGGHKVFMVKPEEPFQPVKEATQL
# Variants of: B1
# Assay: raw area under fraction-flipped curve 0-4 h after induction (AUC4h, not background-subtracted), DNA-recorder readout of cleavage of the substrate (dimensionless); higher = more cleavage of the substrate by the protease variant
# Conditions: temperature: 34 °C; time window: 0-4 h after rhamnose induction
# Procedure: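 In vivo DNA recorder in E. coli TOP10(DE3) ΔrhaA at 34 °C. Each TEVp single-site mutant (parent TEVp 0) is paired with a single-site variant of the 7-mer TEVs (canonical ENLYFQ|S). The substrate sits between flexible linkers in a Bxb1-sfGFP-TEVs-SsrA fusion, so cleavage stabilises Bxb1 and speeds flipping of a recombination array, read by NGS. The value is the raw area under the fraction-flipped curve over 0-4 h after rhamnose induction (AUC4h), with ≥20 reads per time point. It is not background-subtracted; inactive controls average about 0.047.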
# 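Also: Bxb1 expression induced with 0.2% (w/v) L-rhamnose at OD600 near 0.5, cultures sampled hourly, flipped fraction per protease–substrate barcode pair counted by paired-end Illumina sequencing.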
Variant,area with substrate ENLYCQS,area with substrate ENLYEQS,area with substrate ENLYGQS,area with substrate ENLYHQS,area with substrate ENLYIQS,area with substrate ENLYKQS,area with substrate ENLYLQS,area with substrate ENLYMQS,area with substrate ENLYNQS,area with substrate ENLYPQS,area with substrate ENLYRQS,area with substrate ENLYSQS,area with substrate ENLYYQS,area with substrate ENLYDQS,area with substrate ENLYQQS,area with substrate ENLYTQS,area with substrate ENLYVQS,area with substrate ENLYWQS
S130Y,0.0783,0.0685,0.066,0.0576,0.11,0.0428,0.0753,0.0814,0.0637,0.0654,0.0571,0.0724,0.063,,,,,
W141I,0.0493,0.0729,0.0575,0.0692,0.0595,,0.0404,0.0613,0.0173,0.0601,0.052,,,0.0661,0.0684,0.0518,,
Q146C,0.115,0.0405,,0.0687,0.153,0.0909,0.105,0.0884,0.0559,0.072,0.0637,,0.0624,0.0709,0.0702,,0.139,0.081
Q146T,0.0721,0.0713,0.0586,0.0754,0.109,0.0591,,0.0895,0.0737,0.0655,0.065,,,0.0557,0.0599,0.0795,0.104,0.0939
K148Q,0.0869,,,0.0655,,0.0587,,0.0909,0.0795,0.0894,0.0598,0.0677,0.0653,0.0736,0.0639,0.0853,,0.0766
D149Y,0.0787,0.0479,0.0598,0.0569,,0.0586,,0.076,0.071,0.0705,0.0593,0.064,,0.0589,0.0565,0.0341,0.0427,0.0682
Q151M,0.105,0.0809,,0.048,0.106,0.0717,,0.0797,0.0449,,0.0632,0.0632,,0.0596,,,0.0509,
S154H,0.0789,0.0732,0.0605,0.0646,,0.0479,0.0497,0.0783,0.071,0.0581,0.0568,,0.0676,0.0613,0.0493,0.0763,0.0948,0.0716
P155K,0.0675,0.0569,0.0487,0.0693,0.0544,0.0495,,0.0583,0.0511,,0.0539,0.0529,,0.0327,0.0415,0.0583,0.072,0.0569
L156H,0.0503,0.0498,0.0598,0.0592,0.0586,0.0464,0.0577,0.0635,0.0652,0.0594,,0.0651,0.0525,0.0606,0.0615,0.0557,0.0616,0.0573
V165R,0.0529,0.0511,0.0457,0.0587,0.0517,0.0684,0.0455,0.0474,0.05,,0.056,0.0543,0.0698,0.0533,,0.0467,0.055,0.0451
S169W,0.0553,,,,,,,,,,,0.0594,,,,,0.0532,
S171L,0.064,0.0632,0.063,0.0506,,0.0562,,0.0445,0.0669,0.062,0.0602,0.0582,,,0.0631,0.0571,0.055,0.0639
